# Measured values reported in the supplement of paper PMC8728848.
# The list shows a part of the results.
# B1: Epa1-NP-mutant-E227G (Candida glabrata), Q6VBJ0 (protein)
# chain: MILNPALFLNKCVCIYTTLILLLLTNGGYATSSNDISLASKDPTTFPLGCSPDITTPKKGLSMELYSYDFRKKGSYPCWDAAYLDPNYPRTGYKSHRLLAKVDGVTGNINFYYHATKGCTPQLGHLPASYNYPKPLTMTNFTMLLYGYFRPKVTGFHTFTISADDLLFVNFGAGNAFDCCRRDSSADHFGNYQAYAIWGSKTAKDELTVHLDAGVYYPIRLFYNNRGYDGALSFTFKTESNENTVSDFSEYFFSLDDTEEGCPGLISYDSSCASVKTSKIIGIDYHTETPNENLVPITKTIYHLGIPCTGTTTTPLCGSGFYDPLANKCVTINTSSTSSVTKTTSHTTSKEVSFHSSISSQKTLIPKSIPSPYGPIKSQSIPTEMETSSEISSSEYAFSDVISTPSHSPYTKKHSSLNSSSYTSTVIHSLTSYSISQGIFSTSLSEQNITSKSSTDKFSTATSMSNNITQSSIIISQFSTNNENYTTTSMHTSSDKISTETLNNSISTTTSILFSNSSTILKNNTTIISSDKDTHYHPVNPTIVCSTNKTEIICASITQPSISNSNNHWSSSVLKFNSTTVRSTLPSSAGSNETSINVPFSSSTESNTSTSSTSTSNSKMVRSTLPSSAGSNETSISVPFSSSTESNTSTSSTSTSNSKMVRSTLPSSAGSNETSINVPFSSSTESNTSTSSTSTSNSKTVRSTPFSSAGIIMTSLSQRNNKSASSYASSNSKCYNTADSCRKVHSTPSYLLTSSYTSEGVDYDCSLVSTKLKINDTNCVNNKHTTKSCLKTSVTTTIPTLEIKTARKSSSNTIGLHSYPTSSPNKSISSAPIIGYISSFKTIKTASPSYQTSDLTTITTITSLNNPGSTAVENTHESNDKSRKTSSNDISSKHSVIKETKDAVESSNKSHQTNTLKCSSIIIASSSHNSYESLGGTTLTLTLSKVYSPQNNDTLPFLEISEVNPSRTVLPESSKMMQYLTSTEERNKTARNTIATNIVSISTFHFEGEGNAIRMGYTQLLLMLIGIIVMNIGT
# Columns and labels:
# Assay in all cases: glycan array binding signal (z-score within array); higher = stronger binding
# Settings in all cases: glycan notation: IUPAC condensed, linker removed; mutation: E227G
# [1] = target: Gal(b1-4)GalNAc(b1-3)[Fuc(a1-2)]Gal(b1-4)GlcNAc
# How it was run: (§1)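 From the Consortium for Functional Glycomics database, 3228 arrays were curated, keeping only those whose protein sequence was available. Binding is given as a within-array Z-score averaged across arrays sharing a protein sequence and across linkers. Negative Z-scores can be read as non-binding.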
# Gal(b1-4)Glc = target: Gal(b1-4)Glc
# How it was run: as §1
# Gal(b1-4)Glc6S = target: Gal(b1-4)Glc6S
# How it was run: as §1
# Gal(b1-4)GlcNAc = target: Gal(b1-4)GlcNAc
# How it was run: as §1
# [2] = target: Gal(b1-4)GlcNAc(a1-6)Gal(b1-4)GlcNAc
# How it was run: as §1
# Gal(b1-4)GlcNAc(b1-2)Man = target: Gal(b1-4)GlcNAc(b1-2)Man
# How it was run: as §1
# [3] = target: Gal(b1-4)GlcNAc(b1-2)Man(a1-3)Man(b1-4)GlcNAc(b1-4)GlcNAc
# How it was run: as §1
# [4] = target: Gal(b1-4)GlcNAc(b1-2)Man(a1-3)[Gal(b1-4)GlcNAc(b1-2)Man(a1-6)]Man(b1-4)GlcNAc(b1-4)GlcNAc
# How it was run: as §1
# [5] = target: Gal(b1-4)GlcNAc(b1-2)Man(a1-3)[Gal(b1-4)GlcNAc(b1-2)Man(a1-6)]Man(b1-4)GlcNAc(b1-4)[Fuc(a1-6)]GlcNAc
# How it was run: as §1
# [6] = target: Gal(b1-4)GlcNAc(b1-2)Man(a1-3)[Gal(b1-4)GlcNAc(b1-2)Man(a1-6)][Gal(b1-4)GlcNAc(b1-4)]Man(b1-4)GlcNAc(b1-4)[Fuc(a1-6)]GlcNAc
# How it was run: as §1
# [7] = target: Gal(b1-4)GlcNAc(b1-2)Man(a1-3)[Gal(b1-4)GlcNAc(b1-2)Man(a1-6)][GlcNAc(b1-4)]Man(b1-4)GlcNAc(b1-4)[Fuc(a1-6)]GlcNAc
# How it was run: as §1
# [8] = target: Gal(b1-4)GlcNAc(b1-2)Man(a1-3)[GlcNAc(b1-2)Man(a1-6)]Man(b1-4)GlcNAc(b1-4)GlcNAc
# How it was run: as §1
# [9] = target: Gal(b1-4)GlcNAc(b1-2)Man(a1-3)[GlcNAc(b1-4)][Gal(b1-4)GlcNAc(b1-2)Man(a1-6)]Man(b1-4)GlcNAc(b1-4)GlcNAc
# How it was run: as §1
# [10] = target: Gal(b1-4)GlcNAc(b1-2)Man(a1-3)[Man(a1-6)]Man(b1-4)GlcNAc(b1-4)GlcNAc
# How it was run: as §1
# [11] = target: Gal(b1-4)GlcNAc(b1-2)Man(a1-6)Man(b1-4)GlcNAc(b1-4)GlcNAc
# How it was run: as §1
# [12] = target: Gal(b1-4)GlcNAc(b1-2)Man(a1-6)[GlcNAc(b1-2)Man(a1-3)]Man(b1-4)GlcNAc(b1-4)GlcNAc
# How it was run: as §1
# [13] = target: Gal(b1-4)GlcNAc(b1-2)Man(a1-6)[Man(a1-3)]Man(b1-4)GlcNAc(b1-4)GlcNAc
# How it was run: as §1
# [14] = target: Gal(b1-4)GlcNAc(b1-2)[Gal(b1-4)GlcNAc(b1-4)]Man(a1-3)[Gal(b1-4)GlcNAc(b1-2)Man(a1-6)]Man(b1-4)GlcNAc(b1-4)GlcNAc
# How it was run: as §1
# [15] = target: Gal(b1-4)GlcNAc(b1-2)[Gal(b1-4)GlcNAc(b1-4)]Man(a1-3)[Gal(b1-4)GlcNAc(b1-2)[Gal(b1-4)GlcNAc(b1-6)]Man(a1-6)]Man(b1-4)GlcNAc(b1-4)GlcNAc
# How it was run: as §1
# [16] = target: Gal(b1-4)GlcNAc(b1-2)[Gal(b1-4)GlcNAc(b1-4)]Man(a1-3)[GlcNAc(b1-4)][Gal(b1-4)GlcNAc(b1-2)Man(a1-6)]Man(b1-4)GlcNAc(b1-4)GlcNAc
# How it was run: as §1
# [17] = target: Gal(b1-4)GlcNAc(b1-2)[Gal(b1-4)GlcNAc(b1-4)]Man(a1-3)[GlcNAc(b1-4)][Gal(b1-4)GlcNAc(b1-2)[Gal(b1-4)GlcNAc(b1-6)]Man(a1-6)]Man(b1-4)GlcNAc(b1-4)GlcNAc
# How it was run: as §1
# [18] = target: Gal(b1-4)GlcNAc(b1-2)[Gal(b1-4)GlcNAc(b1-6)]Man(a1-6)[Gal(b1-4)GlcNAc(b1-2)Man(a1-3)]Man(b1-4)GlcNAc(b1-4)GlcNAc
# How it was run: as §1
# [19] = target: Gal(b1-4)GlcNAc(b1-2)[Gal(b1-4)GlcNAc(b1-6)]Man(a1-6)[Gal(b1-4)GlcNAc(b1-2)Man(a1-3)]Man(b1-4)GlcNAc(b1-4)[Fuc(a1-6)]GlcNAc
# How it was run: as §1
# [20] = target: Gal(b1-4)GlcNAc(b1-2)[Gal(b1-4)GlcNAc(b1-6)]Man(a1-6)[GlcNAc(b1-4)][Gal(b1-4)GlcNAc(b1-2)Man(a1-3)]Man(b1-4)GlcNAc(b1-4)GlcNAc
# How it was run: as §1
# [21] = target: Gal(b1-4)GlcNAc(b1-2)[Gal(b1-4)GlcNAc(b1-6)]Man(a1-6)[GlcNAc(b1-4)][Gal(b1-4)GlcNAc(b1-2)[Gal(b1-4)GlcNAc(b1-4)]Man(a1-3)]Man(b1-4)GlcNAc(b1-4)[Fuc(a1-6)]GlcNAc
# How it was run: as §1
# [22] = target: Gal(b1-4)GlcNAc(b1-3)Gal(b1-3)GalNAc
# How it was run: as §1
# [23] = target: Gal(b1-4)GlcNAc(b1-3)Gal(b1-3)GlcNAc
# How it was run: as §1
# [24] = target: Gal(b1-4)GlcNAc(b1-3)Gal(b1-4)Glc
# How it was run: as §1
# [25] = target: Gal(b1-4)GlcNAc(b1-3)Gal(b1-4)GlcNAc
# How it was run: as §1
# [26] = target: Gal(b1-4)GlcNAc(b1-3)Gal(b1-4)GlcNAc(b1-2)Man(a1-3)[Gal(b1-4)GlcNAc(b1-3)Gal(b1-4)GlcNAc(b1-2)Man(a1-6)]Man(b1-4)GlcNAc(b1-4)GlcNAc
# How it was run: as §1
binder,measurement,setting,value
B1,glycan array binding signal (z-score),[1],-0.206
same,glycan array binding signal (z-score),Gal(b1-4)Glc,-0.143
same,glycan array binding signal (z-score),Gal(b1-4)Glc6S,7.04
same,glycan array binding signal (z-score),Gal(b1-4)GlcNAc,-0.124
same,glycan array binding signal (z-score),[2],0.595
same,glycan array binding signal (z-score),Gal(b1-4)GlcNAc(b1-2)Man,-0.147
same,glycan array binding signal (z-score),[3],-0.178
same,glycan array binding signal (z-score),[4],-0.165
same,glycan array binding signal (z-score),[5],-0.15
same,glycan array binding signal (z-score),[6],-0.179
same,glycan array binding signal (z-score),[7],-0.203
same,glycan array binding signal (z-score),[8],-0.162
same,glycan array binding signal (z-score),[9],-0.072
same,glycan array binding signal (z-score),[10],-0.143
same,glycan array binding signal (z-score),[11],-0.117
same,glycan array binding signal (z-score),[12],-0.196
same,glycan array binding signal (z-score),[13],-0.161
same,glycan array binding signal (z-score),[14],-0.072
same,glycan array binding signal (z-score),[15],-0.277
same,glycan array binding signal (z-score),[16],-0.135
same,glycan array binding signal (z-score),[17],-0.062
same,glycan array binding signal (z-score),[18],-0.053
same,glycan array binding signal (z-score),[19],-0.118
same,glycan array binding signal (z-score),[20],-0.215
same,glycan array binding signal (z-score),[21],-0.2
same,glycan array binding signal (z-score),[22],-0.039
same,glycan array binding signal (z-score),[23],-0.301
same,glycan array binding signal (z-score),[24],-0.212
same,glycan array binding signal (z-score),[25],-0.047
same,glycan array binding signal (z-score),[26],0.084
